Here are results for 54 compounds from PubChem BioAssay AID1346428 (National Center for Advancing Translational Sciences (NCATS), 2018).

The whole screen tested about 48,000 compounds, of which about 1,200 (2.5%) were called active. About 2% were inconclusive and are not listed.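 Rule for the calls: active = activation of at least 60% and not above a set upper limit (about 1 call in 100 departs from these limits); inconclusive = activation of 40% to 60%, or above that upper limit; inactive = activation under 40%.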 The list shows a part of the results.

The test has as its target Probable G-protein coupled receptor 32 (Homo sapiens) (UniProt O75388). Nature of the test: qHTS for Agonists of Human Resolvin D1 Receptor DRV1. Note: 0% is about no effect. The settings on record: CHO-K1 GPR32 beta-arrestin PathHunter luminescence, 90 min; at 76.9 µM; stronger effect = higher value; zero percent set by DMSO-only wells. In a few lines: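 Engineered CHO-K1 line co-expressing GPR32-ProLink and EA-beta-arrestin. Compound treatment lasted 90 min at 37 °C. Luminescence was recorded after 1 h with substrate at ambient temperature, relative to DMSO basal wells.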
Chain of UniProt O75388 (O75388 whole entry, looked up): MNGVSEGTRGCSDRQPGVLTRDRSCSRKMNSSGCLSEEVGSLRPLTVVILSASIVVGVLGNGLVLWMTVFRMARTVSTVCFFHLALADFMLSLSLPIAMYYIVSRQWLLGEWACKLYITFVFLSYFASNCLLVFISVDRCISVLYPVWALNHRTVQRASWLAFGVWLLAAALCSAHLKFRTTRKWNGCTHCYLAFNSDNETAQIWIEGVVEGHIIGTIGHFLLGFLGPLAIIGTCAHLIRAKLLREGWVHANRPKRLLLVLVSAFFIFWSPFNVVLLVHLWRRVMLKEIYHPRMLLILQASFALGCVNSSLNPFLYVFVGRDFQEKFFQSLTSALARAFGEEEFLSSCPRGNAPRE
In general terms: qHTS replaces the single test concentration by a dilution series.
As to `CCOC(=O)c1ccc(NC(=O)c2csnn2)cc1`, the activation is inactive: 8.03%.

For `O=C(C1CC1)N1CCN(c2nc3c(Cl)cccc3s2)CC1`, the activation was inactive: -8.6%.

In the case of `Fc1ccc(Cc2cn3cc(-c4ccccc4)nc3s2)cc1`, the activation is inactive: 32.5%.

On to `CO/N=C1\CN(c2nc3c(cc2F)c(=O)c(C(=O)O)cn3C2CC2)CC1CN` (centres undefined), for which the activation was inactive: -54.2%.

Take `COc1ccc(CCNC(=O)CSc2nnnn2-c2cccc(C(C)=O)c2)cc1OC`: the activation was inactive: 15.1%.

As for `CC1CCN(S(=O)(=O)c2ccc3c(c2)N(CC(=O)NC(C)C)C(=O)CO3)CC1`, the activation was inactive: -12.5%.

Take `Cc1ccc(-c2nnc(Nc3ccc(Cl)c(Cl)c3)c3ccccc23)cc1S(=O)(=O)NCCO`: the activation was inactive: -4.34%.

In the case of `COc1cccc(CNC(=O)CSc2ncc(S(=O)(=O)c3ccc(Br)cc3)c(=O)[nH]2)c1`, the activation was inactive: 7.19%.

Take `CC1CCN(S(=O)(=O)c2ccc3c(c2)CCN3C(=O)Nc2ccc(Br)cc2)CC1`: the activation is inactive: -13.6%.

As to `Cc1ccccc1C(=O)N1CCN(CCc2ccccn2)CC1`, the activation is inactive: 5.12%.

For the compound `Cc1ccc(NC(=O)C2CCCN2S(=O)(=O)c2cccc3nsnc23)cc1Cl` (centres undefined), the activation is inactive: -7.84%.

Regarding `COc1ccc(CNC(=O)CSc2ncc(S(=O)(=O)c3ccc(C)c(Cl)c3)c(=O)[nH]2)cc1`, the activation is inactive: -21.9%.

Turning to `COc1ccc(CNC(=O)c2ccc3c(c2)CCN3S(=O)(=O)c2ccc(C)cc2)cc1`, the activation is inactive: -7.34%.

Take `Cc1c(C(=O)Nc2ccc(C(C)C)cc2)sc2nc[nH]c(=O)c12`: the activation was inactive: -6.56%.

As for `O=S(=O)(c1ccc2c(c1)CCN2)N1CCCCCC1`, the activation is inactive: -28.2%.

With `Cc1ccc2c(c1)c1c(c(=O)n(Cc3ccccc3)c(=O)n1CC(=O)NCc1ccccc1Cl)n2C`, the activation was inactive: 25.7%.

As to `CN(C(=O)CN1C(=O)CCSc2ccc(S(=O)(=O)N3CCCC3)cc21)c1ccccc1`, the activation is inactive: -19.2%.

For `CCc1ccc(NCc2cc3cc(OC)c(OC)cc3n(CC(=O)Nc3cc(C)ccc3C)c2=O)cc1`, the activation was inactive: -43.6%.

In the case of `COc1ccc(S(=O)(=O)N(CC(=O)NCc2ccccc2)c2ccc(C)cc2)cc1OC`, the activation is inactive: 31.2%.

On to `Cc1cccc(C)c1Nc1nc2ccccc2nc1NS(=O)(=O)c1ccccc1`, for which the activation was inactive: 46.9%.

Consider `COc1ccc(C(C)n2c(C)c3c(C)nnc(C)c3c2C)cc1` (centres undefined), for which the activation is inactive: 32.2%.

As to `CCC(C)OC(=O)/C(C#N)=C\c1ccc(-c2cccc(C(F)(F)F)c2)o1` (centres undefined), the activation was inactive: -6.53%.

Take `O=C(Cn1c(=O)nc(-c2ccccc2)c2ccccc21)NCc1ccc(F)cc1`: the activation is inactive: -12.9%.

On to `COc1ccc(-c2noc(CN(C(C)C)S(=O)(=O)c3ccc(Br)cc3)n2)cc1`, for which the activation was inactive: -2.65%.

`CC1=C(C(=O)N2CCN(c3cccc(C)c3C)CC2)C2(CCCCC2)OC1=O`: the activation is inactive: -31.2%.

Take `C=Cc1ccc(CN2C(=O)c3ccccc3Sc3ccc(C(=O)OCc4ccco4)cc32)cc1`: the activation is inactive: -26.4%.

`O=C(Nc1ccccc1)N(Cc1ccc(F)cc1)c1ccccn1`: the activation was inactive: -11%.

Turning to `Cc1cc(O)c(C(c2ccccc2)N2CCN(C)CC2)c(=O)n1Cc1ccco1` (centres undefined), the activation was inactive: -4.98%.

In the case of `CCOC(=O)c1c(C)[nH]c(C)c1S(=O)(=O)NCC(=O)N1CCN(c2cccc(C)c2)C(C)C1` (centres undefined), the activation was inactive: 1.56%.

Consider `Cc1cccc(NC2=CC(c3cccc(Br)c3)N(c3cccc(C)c3)C2=O)c1` (centres undefined), for which the activation was inactive: -29.3%.

In the case of `COc1ccccc1-c1noc(CCCC(=O)NCc2ccco2)n1`, the activation was inactive: -6.45%.

As for `Cc1cc(C)cc(NC(=O)Nc2nnc(N(C)C3CCCCC3)s2)c1`, the activation is inactive: -13%.

In the case of `COc1ccc(C(=O)Nc2nnc(C(C)C)s2)cc1OC`, the activation is inactive: -11.1%.

Regarding `COc1ccc2sc(N(Cc3cccnc3)C(=O)COc3ccccc3)nc2c1`, the activation is inactive: -20.3%.

Turning to `CCOc1ccc(CCNc2nc3ccccc3n3c(C)nnc23)cc1OCC`, the activation was inactive: -3.49%.

With `COc1cc(NC(=O)Cn2c(=O)n(CC3CCCO3)c(=O)c3ccccc32)cc(OC)c1` (centres undefined), the activation was inactive: -5.05%.

As to `COc1ccc(CCNC(=O)c2ccc(Cn3c(=O)c4ccccc4n(Cc4cccc(C)c4)c3=O)cc2)cc1OC`, the activation is inactive: -19.2%.

As for `CCC1CCCCN1S(=O)(=O)c1cc(C(=O)Nc2ccc(C)c(F)c2)ccc1F` (centres undefined), the activation was inactive: -12.6%.

As for `CCOCCCn1c(=N)c(C(=O)NC2CCCC2)cc2c(=O)n3cc(C)ccc3nc21`, the activation was inactive: -9.87%.

Take `CCn1cnc2c(=O)oc3ccc(S(=O)(=O)Nc4ccc(OC)cc4)cc3c21`: the activation is inactive: -2.88%.

Regarding `CCCCc1nn2c(=O)cc(COC(=O)c3ccc(NC(=O)C(CC)CC)cc3)nc2s1`, the activation was inactive: -14.7%.

Consider `Cc1ccc(NC(=O)c2cc3nc(-c4ccccc4)cc(-c4ccccc4)n3n2)cc1`, for which the activation was inactive: -8.27%.

On to `CC(=O)c1ccc(NS(=O)(=O)c2ccc(-c3cnc(C4CC4)o3)cc2)cc1`, for which the activation was inactive: 19.9%.

Turning to `Cc1ccc(CNC(=O)c2cnn(-c3cccc(C)c3)c2C2CCN(C(=O)OC(C)(C)C)CC2)cc1`, the activation was inactive: -21.2%.

For `COc1ccccc1Cc1nc2ccccc2nc1SCC(=O)Nc1cc(Cl)ccc1OC`, the activation is inactive: -9.61%.

`COCCNC(=O)CSc1nc(-c2ccccc2)[nH]c1-c1ccc(OC)cc1`: the activation was inactive: -25.9%.

Regarding `CCOC(=O)c1c(S(=O)(=O)N2CCC(C(=O)Nc3ccc(C)cc3C)CC2)c(C)n(C)c1C`, the activation is inactive: -8.69%.

Take `Cc1cc(C)cc(NC(=O)c2cnc3sc(N4CCCC4)nn3c2=O)c1`: the activation is inactive: -1.6%.

Take `COc1cccc(-n2c(SCC(=O)Nc3nnc(C)s3)nc3c([nH]c4ccccc43)c2=O)c1`: the activation is inactive: -46.7%.

As to `Fc1ccc2[nH]c(-c3cccs3)cc2c1`, the activation is inactive: 19.3%.

As for `CC(C)Cn1c(=O)c2sccc2n2c(CCCC(=O)N3CCN(c4ccc(F)cc4)CC3)nnc12`, the activation is inactive: 0.4%.

`Cc1cc(CN2CCN(c3cccc(C)c3C)CC2)cs1`: the activation was inactive: -19.8%.

For `CCOc1ccc(NC(=O)C2CCCN(S(=O)(=O)c3c(C)noc3/C=C/N(C)C)C2)cc1` (centres undefined), the activation was inactive: -16.6%.

For the compound `CCOC(=O)C1=C(CN2CCN(c3ccc(OC)cc3)CC2)NC(=O)NC1c1ccc(Cl)cc1` (centres undefined), the activation was inactive: 7.12%.
